# Assay results published in PubChem BioAssay (Tox21).
# Where “and” joins values, the source holds several entries; their conditions need not be identical. Identical values can stand only once. This list was built around the results that the source calls inconclusive (neither active nor inactive); the mix of calls is not that of the screen. Entries that show only a call come without a potency. For part of these data: A potency beside an inconclusive call is a rough fit, not a confirmed value. Calls of active or inactive are those of the source. Unless noted, calls come from the whole dose curve; as a rule, active = well fitted curve in the direction sought with a large enough effect in the repeat runs; inconclusive = weak or mixed curves; inactive = no such curve, though single readings can be large; an effect the other way counts as inactive or inconclusive.
# Legend:
# [1] = qHTS assay to identify small molecule antagonists of the androgen receptor (AR) signaling pathway - cell viability counter screen (AID 743033; note: nearly all actives have a fitted effect of over 45% in size; note: potency is the fitted concentration of half-maximal effect); details: AR-bla HEK293 viability, CellTiter-Glo luminescence, 16 h; activity change, negative = cytotoxicity: at 58.5 µM (top of the series) unless noted
# [2] = qHTS assay to identify small molecule agonists of the farnesoid-X-receptor (FXR) signaling pathway - cell viability counter screen (AID 743218); details: FXR-bla HEK293T viability, CellTiter-Glo luminescence, 16 h; viability change, negative = cytotoxic: at 62.6 µM (top of the series) unless noted; note: nearly all actives have a fitted effect of over 45% in size
# Method in brief: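 Same-well cytotoxicity check on FXR-UAS-bla HEK 293T cells: 5 h attachment, 16 h compound at 37 C, CellTiter-Glo luminescence read at room temperature after 30 min.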
# [3] = qHTS assay to identify small molecule antagonists of the progesterone receptor (PR) signaling pathway - cell viability counter screen (AID 1346798); note: nearly all actives have a fitted effect of over 50% in size; note: potency is the fitted concentration of half-maximal effect
# Method in brief: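 ATP content as viability readout: CellTiter-Glo luminescence, 30 min room temperature, in PR-UAS-bla HEK293T cells after 16 hr compound/R5020 treatment at 37C and 5% CO2.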
# [4] = molecular target: Peroxisome proliferator-activated receptor gamma (Homo sapiens) (UniProt P37231); assay: qHTS assay to identify small molecule agonists of the peroxisome proliferator-activated receptor gamma (PPARg) signaling pathway (AID 743094; active = well fitted activation curve with a large enough effect in the signal ratio in the repeat runs, not every such curve was filed as active; inconclusive = weak or mixed curves, or effect the other way; inactive = no such curve, though single readings can be large or run the other way; the % refers to the signal ratio); details: HEK293H PPARg-UAS-bla, beta-lactamase FRET ratio, 17 h; activation: at 57 µM (top of the series) unless noted
# UniProt P37231, sequence (P37231 whole entry, looked up): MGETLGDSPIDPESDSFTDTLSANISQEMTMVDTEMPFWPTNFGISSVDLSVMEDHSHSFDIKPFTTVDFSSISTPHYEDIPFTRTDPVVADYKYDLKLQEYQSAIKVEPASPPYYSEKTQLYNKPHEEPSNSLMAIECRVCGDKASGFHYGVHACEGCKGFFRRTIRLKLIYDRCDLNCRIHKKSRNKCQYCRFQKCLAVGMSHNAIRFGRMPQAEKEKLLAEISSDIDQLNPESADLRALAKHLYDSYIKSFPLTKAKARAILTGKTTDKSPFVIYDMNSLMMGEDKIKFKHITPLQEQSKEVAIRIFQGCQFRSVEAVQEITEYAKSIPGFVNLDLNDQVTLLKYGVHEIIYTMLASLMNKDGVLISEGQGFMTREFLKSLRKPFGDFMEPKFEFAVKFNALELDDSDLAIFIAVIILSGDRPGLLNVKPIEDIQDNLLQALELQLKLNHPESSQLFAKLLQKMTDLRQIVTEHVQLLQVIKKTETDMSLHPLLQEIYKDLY
# Method in brief: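 Fluorescence-based beta-lactamase readout in HEK293H PPARg UAS-bla cells after 17 h compound exposure (37C) and 1 h B/G FRET substrate incubation at room temperature.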
# [5] = qHTS RealTime-Glo MT Cell Viability Assay in HEK293 cells - 0 hour (AID 1224880); note: nearly all actives have a fitted effect of over 45% in size; note: potency is the fitted concentration of half-maximal effect; for activity change, negative = cytotoxicity: top concentration of the series differs between compounds
# Method in brief: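 HEK293 + NanoLuc + prosubstrate, 600 cells/well; 5 h, 37 C/5% CO2; compound 23 nL in DMSO by pintool; 37 C; luminescence read at 0, 8, 16, 24, 32 and 40 h time points.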
# [6] = A CellTox Green Cytotoxicity Assay to monitor cytotoxicity in HEK293 cells - 16 hour (AID 1224888); note: nearly all actives have a fitted effect of over 35% in size
# Method in brief: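 Tox21 screen in HEK293: membrane-impermeant cyanine dye fluoresces on binding dead-cell DNA; compound pinned 5 h post-seeding, plates held at 37 C, signal read repeatedly through 40 h.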
# [7] = qHTS assay to identify small molecule phospholipidosis (PLD) inducers (AID 1259344; active = well fitted curve in the direction sought with a large enough effect; inconclusive = small, poorly fitted or top-dose-only effect, or another doubt; inactive = no such curve, though single readings can be large; an effect the other way counts as inactive or inconclusive; note: potency is the fitted concentration of half-maximal effect); details: HepG2 phospholipidosis, LipidTOX Red imaging, 24 h; PLD induction: at 38.3 µM (top of the series) unless noted
# Method in brief: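 After 4 h attachment on collagen I, HepG2 cells were dosed with compound alongside LipidTOX Red, kept 24 h at 37 C, fixed, and imaged for lamellar phospholipid pits.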
# [8] = molecular target: Estrogen receptor beta (Homo sapiens) (UniProt Q92731); assay: qHTS assay to identify small molecule antagonists of the estrogen receptor beta (ER-beta) signaling pathway (AID 1259378; active = well fitted inhibition curve with a large enough effect in the signal ratio in the repeat runs, not every such curve was filed as active; inconclusive = weak or mixed curves, or effect the other way; inactive = no such curve, though single readings can be large or run the other way; the % refers to the signal ratio); details: ER-beta-UAS-bla HEK293T, beta-lactamase FRET ratio, 16 h
# UniProt Q92731, sequence (Q92731 whole entry, looked up): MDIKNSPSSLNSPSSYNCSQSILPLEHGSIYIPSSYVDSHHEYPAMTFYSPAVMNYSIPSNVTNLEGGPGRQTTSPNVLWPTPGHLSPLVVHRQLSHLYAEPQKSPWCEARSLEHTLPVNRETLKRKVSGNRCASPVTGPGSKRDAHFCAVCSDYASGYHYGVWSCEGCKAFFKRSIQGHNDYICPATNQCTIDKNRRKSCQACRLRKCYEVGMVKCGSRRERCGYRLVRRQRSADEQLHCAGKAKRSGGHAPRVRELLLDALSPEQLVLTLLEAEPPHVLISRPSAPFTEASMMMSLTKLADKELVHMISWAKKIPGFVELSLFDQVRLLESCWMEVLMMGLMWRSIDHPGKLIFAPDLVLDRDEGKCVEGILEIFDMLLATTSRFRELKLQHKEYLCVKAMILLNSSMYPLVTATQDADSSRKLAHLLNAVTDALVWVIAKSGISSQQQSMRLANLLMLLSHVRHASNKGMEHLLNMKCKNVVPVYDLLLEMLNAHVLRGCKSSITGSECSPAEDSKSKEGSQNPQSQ
# Method in brief: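 ER-beta-UAS-bla HEK293T (GripTite) cells in 2% charcoal-stripped FBS medium were preincubated 6 hr at 37C, dosed with compound, then stimulated with 1 nM E2 (final) for 16 hr; beta-lactamase reporter read by B/G FRET fluorescence after 2 hr substrate loading.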
# [9] = molecular target: Estrogen receptor (Homo sapiens) (UniProt P03372); assay: qHTS assay to identify small molecule antagonists of the estrogen receptor alpha (ER-alpha) signaling pathway (AID 743069; active = well fitted curve in the direction sought with a large enough effect in the signal ratio in the repeat runs, not every such curve was filed as active; inconclusive = weak or mixed curves, or effect the other way; inactive = no such curve, though single readings can be large or run the other way; the % refers to the signal ratio); details: HEK293 ER-alpha-UAS-bla, beta-lactamase ratio, antagonist mode; activity, negative = inhibition: at 69.4 µM (top of the series) unless noted
# UniProt P03372, sequence (P03372 whole entry, looked up): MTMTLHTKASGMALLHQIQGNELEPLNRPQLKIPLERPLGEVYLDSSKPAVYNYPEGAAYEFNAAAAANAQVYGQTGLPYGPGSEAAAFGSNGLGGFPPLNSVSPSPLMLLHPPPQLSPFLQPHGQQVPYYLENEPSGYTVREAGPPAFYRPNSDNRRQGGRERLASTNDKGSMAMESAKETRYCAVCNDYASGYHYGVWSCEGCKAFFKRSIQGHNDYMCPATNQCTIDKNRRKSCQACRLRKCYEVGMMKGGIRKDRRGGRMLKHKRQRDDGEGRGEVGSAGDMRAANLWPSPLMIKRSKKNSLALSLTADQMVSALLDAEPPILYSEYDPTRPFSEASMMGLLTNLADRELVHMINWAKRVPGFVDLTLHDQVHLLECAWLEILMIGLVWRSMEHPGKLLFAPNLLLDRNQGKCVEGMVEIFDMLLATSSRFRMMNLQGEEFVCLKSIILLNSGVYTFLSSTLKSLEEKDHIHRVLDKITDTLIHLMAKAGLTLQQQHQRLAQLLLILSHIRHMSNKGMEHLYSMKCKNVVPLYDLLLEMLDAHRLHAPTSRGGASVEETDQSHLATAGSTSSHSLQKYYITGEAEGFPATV
# Method in brief: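 A 17beta-estradiol challenge was applied right after compound transfer to ER-alpha-UAS-bla HEK293 cells previously kept in charcoal-stripped serum. Plates stood 18 hr at 37C and 5% CO2; fluorescence was read following 2 hr FRET substrate loading at room temperature.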
# [10] = qHTS assay to identify small molecule antagonists of the estrogen receptor alpha (ER-alpha) signaling pathway using the BG1 cell line (AID 743080; calls by dose curve;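 note: BG1 cells stimulated with 17beta-estradiol alongside compound; nearly all actives have a fitted effect of over 25% in size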; note: potency is the fitted concentration of half-maximal effect); details: BG1Luc4E2 ERE-luciferase antagonist mode, luminescence; activity change, negative = inhibition: at 70.3 µM (top of the series) unless noted
# Method in brief: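 Luciferase inhibition measured with ONE-Glo after 30 min at RT in BG1Luc4E2 cells given test compounds and 17beta-estradiol for 21.5 h at 37 C; CellTiter-Fluor viability read in the same wells beforehand.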
# [11] = molecular target: Progesterone receptor (Homo sapiens) (UniProt P06401); assay: qHTS assay to identify small molecule agonists of the progesterone receptor (PR) signaling pathway (AID 1346784; calls by dose curve; note: nearly all actives have a fitted effect of over 30% in size; note: potency is the fitted concentration of half-maximal effect); details: PR-UAS-bla HEK293T, beta-lactamase FRET ratio, 16 h; activation: at 92.4 µM (top of the series) unless noted
# UniProt P06401, sequence (P06401 whole entry, looked up): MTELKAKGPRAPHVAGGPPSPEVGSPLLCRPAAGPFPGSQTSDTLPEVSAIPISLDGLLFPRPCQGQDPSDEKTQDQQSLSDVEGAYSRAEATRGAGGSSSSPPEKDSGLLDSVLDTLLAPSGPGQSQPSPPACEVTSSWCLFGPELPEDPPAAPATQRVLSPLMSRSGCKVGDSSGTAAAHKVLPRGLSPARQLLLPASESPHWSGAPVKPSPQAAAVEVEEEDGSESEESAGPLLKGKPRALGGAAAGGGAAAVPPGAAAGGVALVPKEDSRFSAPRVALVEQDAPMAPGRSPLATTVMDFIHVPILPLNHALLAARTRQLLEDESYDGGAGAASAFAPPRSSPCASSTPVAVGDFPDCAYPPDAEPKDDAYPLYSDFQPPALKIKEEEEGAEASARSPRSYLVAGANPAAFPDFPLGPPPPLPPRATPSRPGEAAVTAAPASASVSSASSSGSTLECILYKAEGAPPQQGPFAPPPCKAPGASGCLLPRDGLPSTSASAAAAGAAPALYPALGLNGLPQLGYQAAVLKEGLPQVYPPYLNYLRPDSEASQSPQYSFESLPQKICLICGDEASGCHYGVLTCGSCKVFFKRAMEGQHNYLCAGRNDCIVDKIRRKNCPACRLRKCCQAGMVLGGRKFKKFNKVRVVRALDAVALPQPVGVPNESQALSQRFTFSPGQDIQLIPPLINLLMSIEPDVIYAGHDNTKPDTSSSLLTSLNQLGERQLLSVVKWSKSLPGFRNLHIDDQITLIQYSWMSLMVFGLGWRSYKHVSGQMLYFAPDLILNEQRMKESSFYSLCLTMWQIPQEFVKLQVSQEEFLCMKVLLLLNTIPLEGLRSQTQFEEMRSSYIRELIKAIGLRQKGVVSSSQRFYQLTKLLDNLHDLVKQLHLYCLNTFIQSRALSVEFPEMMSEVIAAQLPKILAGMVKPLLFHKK
# Method in brief: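 Using charcoal-stripped serum (2%) to limit endogenous steroids, PR-UAS-bla HEK 293T cells received compounds for 16 hr at 37C after 6 hr plating; beta-lactamase FRET fluorescence was recorded following 2 hr substrate loading at room temperature.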
# [12] = qHTS assay to identify small molecule antagonists of the vitamin D receptor (VDR) signaling pathway - cell viability counter screen (AID 743225); details: VDR-bla HEK293T viability, CellTiter-Glo luminescence, 16 h; viability change, negative = cytotoxic: at 61 µM (top of the series) unless noted; note: nearly all actives have a fitted effect of over 50% in size; note: potency is the fitted concentration of half-maximal effect
# Method in brief: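 In this counter screen, VDR-bla HEK 293T cells receive test compound plus 3 nM final calcitriol for 16 h at 37C. Room-temperature steps of 2 h with the beta-lactamase substrate, then 30 min with CellTiter-Glo, precede the luminescence read.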
# [13] = A CellTox Green Cytotoxicity Assay to monitor cytotoxicity in HepG2 cells - 40 hour (AID 1224879); note: nearly all actives have a fitted effect of over 40% in size; note: potency is the fitted concentration of half-maximal effect
# Method in brief: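 Measurements at 0, 8, 16, 24, 32 and 40 h of treatment captured CellTox Green fluorescence in HepG2 cells that had been co-plated with reagent and preincubated 5 h at 37 C/5% CO2.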
# [14] = qHTS assay to identify small molecule antagonists of the sonic hedgehog signaling (Shh) pathway (AID 1259369; calls by dose curve; note: nearly all actives have a fitted effect of over 45% in size; note: potency is the fitted concentration of half-maximal effect)
# Method in brief: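 NIH/3T3 stable Gli1-Luc clone, 2,000 cells/well, 4hr settle; cpd + conditioned medium 24hr; Luc reagent 30min RT; luminescence.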
# [15] = Caspase-3/7 induction in HepG2 cells by small molecules, qHTS cell viability counter screen (AID 1346981); note: nearly all actives have a fitted effect of over 30% in size
# Method in brief: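 Treatment of HepG2 cells with DMSO-delivered compounds ran 16 hr at 37 C following a 5-hr pre-incubation of 2,000 cells/well. CellTiter-Fluor fluorescence, read after 1 hr, served as the viability measure in a qHTS format.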
# [16] = qHTS assay to identify small molecule agonists of the vitamin D receptor (VDR) signaling pathway - cell viability counter screen (AID 743224); note: nearly all actives have a fitted effect of over 50% in size
# Method in brief: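 Counter screen for cytotoxicity: VDR-bla cells at 2,000 cells/well, 16 h compound exposure, then CellTiter-Glo luminescence after the beta-lactamase measurement.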
# [17] = qHTS assay to identify small molecule agonists of the estrogen receptor beta (ER-beta) signaling pathway - cell viability counter screen (AID 1259380); note: nearly all actives have a fitted effect of over 30% in size; note: potency is the fitted concentration of half-maximal effect
# Method in brief: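 Measured: luminescence from CellTiter-Glo after 30 min at room temperature, added to wells already read for the LiveBLAzer FRET reporter (2 hr substrate); ER-beta-UAS-bla HEK293T cells had 16 hr compound treatment at 37C, 5% CO2.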
# [18] = molecular target: Estrogen receptor beta (Homo sapiens) (UniProt Q92731); assay: qHTS assay to identify small molecule agonists of the estrogen receptor beta (ER-beta) signaling pathway (AID 1259377; active = well fitted activation curve with a large enough effect in the signal ratio in the repeat runs, not every such curve was filed as active; inconclusive = weak or mixed curves, or effect the other way; the % refers to the signal ratio; note: potency is the fitted concentration of half-maximal effect); details: ER-beta-UAS-bla HEK293T, beta-lactamase FRET ratio, 16 h; activation: at 92.4 µM (top of the series) unless noted
# Method in brief: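 In HEK293T cells bearing a UAS-beta-lactamase reporter under ER-beta control, DMSO-delivered compounds were incubated for 16 hr at 37C. Activity was detected as fluorescence 2 hours after LiveBLAzer B/G FRET substrate addition.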
# [19] = qHTS assay for identifying genotoxic compounds that show differential cytotoxicity against isogenic chicken DT40 cell lines with known DNA damage response pathways - Rad54/Ku70 mutant cell line (AID 743015); details: DT40 Rad54/Ku70 mutant viability, CellTiter-Glo, 40 h; activity change, negative = cytotoxicity: at 66.8 µM (top of the series) unless noted; note: potency is the fitted concentration of half-maximal effect; nearly all actives have a fitted effect of over 60% in size
# [20] = molecular target: Cytochrome P450 2D6 (Homo sapiens) (UniProt P10635); assay: Cytochrome P450 Family 2 Subfamily D Member 6 (CYP2D6) small molecule antagonists: luciferase reporter qHTS assay (AID 1671196); note: nearly all actives have a fitted effect of over 50% in size; note: potency is the fitted concentration of half-maximal effect
# UniProt P10635, sequence (P10635 whole entry, looked up): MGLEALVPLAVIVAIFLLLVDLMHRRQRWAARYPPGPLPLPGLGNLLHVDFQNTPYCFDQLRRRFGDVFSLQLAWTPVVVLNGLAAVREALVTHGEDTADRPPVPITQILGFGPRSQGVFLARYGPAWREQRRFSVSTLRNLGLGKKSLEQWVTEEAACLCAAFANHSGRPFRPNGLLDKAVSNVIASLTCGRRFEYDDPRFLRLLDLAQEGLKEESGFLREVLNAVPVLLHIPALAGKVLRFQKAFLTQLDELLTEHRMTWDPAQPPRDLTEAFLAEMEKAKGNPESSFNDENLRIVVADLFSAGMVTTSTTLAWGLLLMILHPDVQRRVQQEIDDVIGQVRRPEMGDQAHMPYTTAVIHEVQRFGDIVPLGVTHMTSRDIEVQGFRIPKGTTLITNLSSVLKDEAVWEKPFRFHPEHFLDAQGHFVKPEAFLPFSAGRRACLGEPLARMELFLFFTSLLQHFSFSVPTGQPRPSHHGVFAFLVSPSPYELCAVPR
# Method in brief: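 Chemicals tested for interference with CYP2D6 activity; proluciferin substrate, NADPH regeneration, 1 h at room temperature, luminescent detection.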
# [21] = activity, negative = inhibition: at 92.4 µM (top of the series) unless noted
# Tags give direction and shape of the fitted curve or compound fluorescence and quenching.
smiles,measurement,setting,value
CN1CCN(c2c(F)cc3c(=O)c(C(=O)O)cn4c3c2OCN4C)CC1,Potency,[1],"inconclusive: 26.8 µM [cytotoxic, partial curve, poor fit]"
same,"viability change, negative = cytotoxic",[2],inconclusive: 31.4% [at 29.1 µM]
same,"activity change, negative = cytotoxicity",[3],inactive: 10.3% [at 18.9 µM]
CC(C)(O)C(=O)c1ccccc1,Potency,[4],inactive
same,Potency,[2],inactive
NC(N)=O,Potency,[1],inactive
same,Potency,[5],inactive
same,Potency,[6],inactive
same,Potency,[7],inactive
same,"activity, negative = inhibition",[8]; [21],inconclusive: 35.2%
same,"activity, negative = inhibition",[8]; at 92.4 µM (top of the series),inactive: 16.1% and inactive: 6.73%
CC(=O)OCC(=O)[C@@]1(O)CC[C@H]2[C@@H]3CCC4=CC(=O)C=C[C@]4(C)[C@H]3[C@@H](O)C[C@@]21C,"activity, negative = inhibition",[9],inconclusive: 30.8%
same,Potency,[10],"inconclusive: 0.237 µM [rising, full curve, poor fit]"
same,Potency,[5],active: 21.3 µM
same,"activity, negative = inhibition",[8]; [21],inconclusive: -23.4% [at 42.5 µM]
same,activation,[11],inconclusive: 16.4% [at 42.5 µM]
CCCC(=O)O[C@]1(C(=O)CO)CC[C@H]2[C@@H]3CCC4=CC(=O)CC[C@]4(C)[C@H]3[C@@H](O)C[C@@]21C,Potency,[1],"inconclusive: 0.003 µM [cytotoxic, full curve, poor fit]"
same,Potency,[4],inactive
same,Potency,[5],active: 10.7 µM
same,Potency,[11],active: 0.841 µM
CC1(C)OC[C@@H](COC(=O)CCc2ccc(OC[C@@H](O)CNCCNC(=O)N3CCOCC3)cc2)O1,Potency,[12],inactive
same,Potency,[13],inactive
same,Potency,[14],inactive
CC1=CCC(=O)O1,Potency,[13],inactive
same,Potency,[14],inactive
O=C(O)[C@@H]1CSCN1,Potency,[2],inactive
same,Potency,[15],inactive
COS(=O)(=O)O,Potency,[12],inactive
same,Potency,[13],"inconclusive: 61.5 µM [activator, single point]"
O=C(c1ccc2c(c1)C(=O)OC2=O)c1ccc2c(c1)C(=O)OC2=O,Potency,[13],inactive
same,Potency,[8]; [21],inactive
COCCOC(=O)CC#N,Potency,[11],inactive
O=CN(CCO)CCO,Potency,[12],"inconclusive: 12.3 µM [cytotoxic, single point]"
same,Potency,[8]; [21],inactive
c1coc(CNc2ncnc3nc[nH]c23)c1,Potency,[9],inactive
CO[C@@]1(NC(=O)Cc2cccs2)C(=O)N2C(C(=O)O)=C(COC(N)=O)CS[C@@H]21,Potency,[1],inactive
same,Potency,[16],inactive
CCCCCCCCCCl,Potency,[5],inactive
same,Potency,[14],"inconclusive: 1.38 µM [inhibitor, single point]"
same,Potency,[8]; [21],inactive
same,Potency,[17],inactive
CCn1nc(C(=O)O)c(=O)c2cc3c(cc21)OCO3,Potency,[1],"inconclusive: 0.0013 µM [cytotoxic, full curve, poor fit]"
same,Potency,[10],inactive
same,Potency,[16],inactive
same,Potency,[17],inactive
C=C(C)C(=O)OCc1ccccc1,Potency,[5],"inconclusive: 61.6 µM [rising, single point]"
same,Potency,[3],active: 30.6 µM
O=C(CO)[C@@H](O)[C@H](O)[C@@H](O)CO,Potency,[9],inactive
same,Potency,[10],inactive
same,Potency,[12],inactive
same,Potency,[13],"inconclusive: 26.8 µM [activator, single point]"
same,Potency,[14],inactive
O=S(O)O,cytotoxicity increase,[13],inactive: -12.9% [at 15.8 µM]
same,"activity change, negative = cytotoxicity",[17],inactive: -0.0055% [at 19 µM]
C/C=C(\C)C=O,Potency,[8]; [21],inactive
same,Potency,[11],active: 21.8 µM
CCOC(=O)C(=O)c1csc(NC=O)n1,Potency,[2],inactive
same,Potency,[6],inactive
O=C1c2ccccc2C(=O)N1CO,Potency,[9],inactive
same,Potency,[13],inactive
same,Potency,[18],inactive
CO[Si](C)(OC)OC,Potency,[13],"inconclusive: 53.6 µM [activator, single point]"
same,Potency,[17],inactive
CCCC(O)C(O)CO (stereo not drawn),Potency,[18],"inconclusive: 13.7 µM [activator, full curve]"
same,Potency,[17],"inconclusive: 2.43 µM [cytotoxic, single point]"
CCN1CCCC(OC(=O)C(c2ccccc2)c2ccccc2)C1 (stereo not drawn),Potency,[19],"inconclusive: 10.1 µM [cytotoxic, partial curve]"
same,Potency,[9],inactive
same,Potency,[6],inactive
same,Potency,[17],"inconclusive: 0.668 µM [cytotoxic, full curve]"
same,Potency,[3],"inconclusive: 7.5 µM [cytotoxic, single point]"
CCOC(=O)[C@H](O)[C@@H](O)C(=O)OCC,activation,[18],inconclusive: 8.06%
CCCCCCCCCCC1CO1 (stereo not drawn),Potency,[19],"inconclusive: 68.6 µM [cytotoxic, single point]"
same,activation,[4],inconclusive: 0.391%
same,Potency,[20],"inconclusive: 71 µM [inhibitor, partial curve, poor fit]"
Cc1ccccc1N1C(=O)c2cc(S(N)(=O)=O)c(Cl)cc2NC1C (stereo not drawn),Potency,[7],"inconclusive: 4.47 µM [activator, single point]"
same,Potency,[18],inactive
same,Potency,[3],inactive
same,Potency,[20],inactive
